# Results: ChEMBL document CHEMBL4888484, “Replenishing the malaria drug discovery pipeline: Screening and hit evaluation of the MMV Hit Generation Library 1 (HGL1) against asexual blood stage Plasmodium falciparum ,using a nano luciferase reporter read-out” (2022)
# Screen size: about 150,000 compounds; about 540 (0.36%) showed an effect of 50% or more. The list shows a part of the results.
# Tested on: Plasmodium falciparum
# Experiment: Primary screen in NF54 nanoGlo assay, in single point, at 2uM, 72h; a lower Z score goes with more inhibition
# Assay type: functional, Erythrocyte
# Conditions: timepoint 72 hour
SMILES,% Inhibition [%],Z score
CC(C)[C@H](CCO)NC(=O)C(C)(C)N1CCCCC1,-13,1.78
O=C1CN(C(=O)c2cccs2)c2ccccc2N1,3,-0.53
N#Cc1cccc(S(=O)(=O)N2CCOC[C@H]2c2noc(-c3ccccc3)n2)c1,2,-0.17
CCCC(CCC)C(=O)N1CCC[C@H](Oc2nc(C3CC3)nc3c2CCOCC3)C1,-7,0.64
O=C(Nc1ccc(Cl)cc1)c1nnc(C(=O)N2CCC[C@H](C(=O)N3CCCCCC3)C2)s1,-28,2.49
O=C(NCCc1ccccc1)C1CCC(Cn2cnnn2)CC1 (configuration not stated),-2,0.29
COCc1nc(CNC(=O)N2CC3(CCCC3)C2)c(-c2ccccc2)s1,18,-2.32
COc1ccc(CN(C)[C@H]2CCc3nn(C)c(=O)n3CC2)c(Cl)c1OC,32,-4.3
CCCc1cc(C(=O)Nc2cc(C)on2)cs1,-4,0.52
O=C(NCc1ccc(N2CCCS2(=O)=O)cc1)c1cc2sccc2[nH]1,-13,2.05
CC[C@@H](C(=O)NCc1cnc(C)cn1)n1cccn1,20,-2.58
CN(CCCN1CCOCC1)c1cc([C@H]2C[C@@H](O)C2)ncn1,-4,0.65
Cc1nc(-c2cc(S(=O)(=O)NCC(=O)N3CCN(c4cccc(Cl)c4)CC3)c(C)s2)no1,-10,0.96
CCc1nc(N2CCN(CC=C(C)C)[C@H](C(=O)O)C2)no1,-7,0.74
C[C@H](NCc1ccccc1)c1ccc2c(c1)C(C)(C)C(=O)N2,-13,1.2
COc1cccc(CN(Cc2ccc(C(O)(c3ccccc3)c3ccccc3)o2)CC(C)C)c1OC,4,-0.5
CCc1ccc(OC[C@H]2Cn3c(nc4c(=O)n(C)c(=O)n(C)c43)O2)cc1,-15,1.43
Cn1cc(Br)cc1C(=O)NCCn1cnnc1C1CC1,-6,0.59
Cn1ccc([C@H]2CCCN(CCC(C)(C)CC(=O)O)C2)n1,1,-0.11
COc1ccc([C@H](C)NCc2c3c(nn2C)CCCC3)c(OC)c1,-5,0.64
C[C@@H](C1CC1)N(C)CC(=O)N1CCCCCC1,-7,1.34

SMILES,% Inhibition [%],Z score
CC(C)(C)CNC(=O)NCCCN1C(=O)CCC1=O,11,-1.37
CC(C)C(=O)N1CCC2(CC1)OC[C@@H](C(=O)NCc1ccc(F)cc1)N2C(=O)c1ccccc1,-1,0.14
CCCCCOCC(=O)Nc1ccc2oc(C(N)=O)nc2c1,-13,1.55
O=c1c2nnn(Cc3cccc(Cl)c3)c2ncn1Cc1nc(-c2ccccc2)no1,13,-1.84
CN1CCCN(C(=O)[C@H]2CC23CCN(Cc2cccc(Oc4ccccc4)c2)CC3)CC1,0,-0.02
O=C(NC1CCN(Cc2ccccc2)CC1)c1occc1-c1ccccc1,-3,0.62
COC[C@H](C)NC(=O)CS(=O)(=O)c1ccc(F)c(F)c1,-10,1.65
Cc1cc(C(=O)N2CCCC[C@H]2c2nc(=O)[nH][nH]2)nn1C(F)F,36,-0.89
CC[C@H](NC1CCN(c2nc(C)nc3sccc23)CC1)c1nc(C)c[nH]1,-5,0.79
CNC(=O)CNC(=O)[C@H]1O[C@@H]2OC(C)(C)O[C@@H]2[C@H]2OC(C)(C)O[C@H]21,2,-0.29
O=S1(=O)CC[C@H](S(=O)(=O)Nc2c(F)c(F)c(Cl)c(F)c2F)C1,-12,1.55
COc1ccc(CNC(=O)[C@H]2O[C@H](CCN3CCN(C)CC3)CC[C@@H]2O)cc1,3,-0.57
COCCN1C(=O)c2cccn2C[C@@H]1CNC(=O)NC1CCCCC1,-2,0.36
CN1CCCN(C(=O)c2cn(CCNC(=O)CCC3CCCC3)nn2)CC1,-9,1.22
CCN(CC)C(=O)Nc1ccc(-c2ccc3c(c2)NC(=O)CO3)cc1,-18,2.45
COc1ccccc1-c1nc(Cn2nnc(-c3nc(-c4cccc(F)c4)no3)c2C)c(C)o1,-6,0.88
Cc1ccc(-n2nc(C(=O)NCc3cccnc3)nc2Cc2ccccc2)cc1,2,-0.28
O=C(O)[C@H]1CCN(C(=O)CCCc2ccc(F)c(F)c2)C1,5,-0.84
O=C(Cc1ccccc1O)N[C@@H]1C[C@H]1c1c(F)cccc1Cl,5,-0.92
COCCCN(Cc1cncnc1)[C@H]1CCCN(C(=O)OC(C)(C)C)CC1,-12,1.53
